From article PMC4336329 (PLoS ONE, 2015)
The whole screen tested about 310,000 compounds, of which about 2,200 (0.71%) showed an effect of 50% or more. Effects have a minus sign here. This is one part of the list.

target: human ether-à-go-go-related gene (hERG) potassium channel (human, UniProt Q12809); assay: primary screen, population patch clamp on CHO cells stably expressing hERG
Sequence (Q12809 whole entry, looked up): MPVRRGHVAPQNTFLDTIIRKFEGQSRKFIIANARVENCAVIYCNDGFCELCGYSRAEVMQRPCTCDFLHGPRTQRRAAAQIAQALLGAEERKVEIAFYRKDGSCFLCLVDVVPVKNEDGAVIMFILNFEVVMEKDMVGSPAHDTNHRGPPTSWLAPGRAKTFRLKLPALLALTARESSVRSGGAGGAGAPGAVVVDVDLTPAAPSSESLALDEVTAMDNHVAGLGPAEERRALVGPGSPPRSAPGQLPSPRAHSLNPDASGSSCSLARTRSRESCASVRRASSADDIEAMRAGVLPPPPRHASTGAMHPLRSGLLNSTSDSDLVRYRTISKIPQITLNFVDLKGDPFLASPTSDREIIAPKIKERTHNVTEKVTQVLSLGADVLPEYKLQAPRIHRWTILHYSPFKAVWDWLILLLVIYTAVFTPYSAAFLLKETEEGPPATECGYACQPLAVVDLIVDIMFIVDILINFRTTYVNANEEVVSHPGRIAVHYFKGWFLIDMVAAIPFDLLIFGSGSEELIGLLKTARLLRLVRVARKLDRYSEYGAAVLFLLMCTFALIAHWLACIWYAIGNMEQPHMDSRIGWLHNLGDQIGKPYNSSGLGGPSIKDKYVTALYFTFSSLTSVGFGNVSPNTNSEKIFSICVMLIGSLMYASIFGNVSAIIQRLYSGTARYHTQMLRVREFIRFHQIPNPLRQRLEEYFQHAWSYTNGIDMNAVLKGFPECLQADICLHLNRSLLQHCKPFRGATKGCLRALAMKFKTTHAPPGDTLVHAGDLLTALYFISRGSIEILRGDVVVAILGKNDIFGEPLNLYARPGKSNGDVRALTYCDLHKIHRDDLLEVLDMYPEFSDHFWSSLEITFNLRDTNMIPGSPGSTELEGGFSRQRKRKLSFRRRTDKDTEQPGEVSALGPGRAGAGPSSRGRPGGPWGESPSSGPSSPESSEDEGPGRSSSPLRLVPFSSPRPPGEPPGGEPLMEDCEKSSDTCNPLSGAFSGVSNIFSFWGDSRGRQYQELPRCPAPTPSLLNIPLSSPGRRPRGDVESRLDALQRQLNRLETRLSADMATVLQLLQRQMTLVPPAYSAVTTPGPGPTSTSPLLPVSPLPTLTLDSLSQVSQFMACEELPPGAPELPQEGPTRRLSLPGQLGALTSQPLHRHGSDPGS

| Structure (SMILES) | hERG current change (%, negative = inhibition) at 1uM [%] |
| --- | --- |
| C/C(=N\Nc1ccc([N+](=O)[O-])cc1)c1ccco1 | 10.8 |
| COCCCNc1nc(-c2ccc(Cl)cc2)nc2ccccc12 | 7.26 |
| O=C(c1ccco1)N1CCN(C(=O)C2CC(c3ccc(Cl)cc3)=NO2)CC1 (stereo not drawn) | -66.5 |
| CCCCn1c(=O)c(CCC(=O)OCC(=O)NC(C)c2ccccc2)nc2ccccc21 (stereo not drawn) | 8.54 |
| Cc1ccc(S(=O)(=O)N2[C@@H](c3ccccc3F)C(C(=O)O)=CC[C@H]2c2cccc(Cl)c2)cc1 | 13.1 |
| Cc1nc(-n2nnc3ccccc32)c2c3c(sc2n1)CCCC3 | -0.0299 |
| CCOC(=O)C1=NN(c2ccc(Cl)cc2)/C(=C/C2=NCCc3cc(OC)c(OC)cc32)S1 | 10.6 |
| COc1ccc2c(c1)c1nc3n(c(=O)c1n2CC(=O)Nc1cc(C)[nH]n1)CCS3 | 10.2 |
| Cc1ccccc1C(=O)NNC(=O)C12CC3CC(CC(C3)C1)C2 | 4.29 |
| C#CC(C)(CC)NC(=O)c1cc2cccc(CC=C)c2oc1=O (stereo not drawn) | 12.6 |
| O=C(C1CC=CCC1)N1CCC(CO)(Cc2ccc(Cl)cc2)CC1 (stereo not drawn) | 5.11 |
| Cc1nccn1C(c1ccccc1)c1ccccc1.O=C(O)C(=O)O | 3.31 |
| CCN(CC)S(=O)(=O)c1ccc(NCCCn2ccnc2)c([N+](=O)[O-])c1 | -7.58 |
| Cc1ccccc1CC1(CO)CCCN(C(=O)c2ccc(F)cc2)C1 (stereo not drawn) | 8.9 |
| COc1cccc(NC(=O)CSc2nc(C3CC3)nc3ccccc23)c1 | 10.1 |
| Oc1c(C(Nc2nc3ccccc3s2)c2ccco2)ccc2cccnc12 (stereo not drawn) | 13 |
| Cc1cccc(C(=O)Oc2c(Br)cc(Br)cc2/C=N/NC(=O)c2ccncc2)c1 | 4.15 |
| Cc1ccc(C2(c3noc(CN(C)CCO)n3)CCCC2)cc1 | 7.5 |
| CCN(CC)CCNC(=O)c1ccc(NC(=O)c2ccc3c(c2)CCC3)cc1 | -4.95 |
| CCCCNc1c(C(=O)OCC)c(=O)[nH]c2ccccc12 | 4.5 |
| CCOC(=O)COc1ccc(Br)cc1/C=C1\SC(N)=NC1=O | 10.4 |
| Clc1cccc(CSc2nnc(-c3sccc3-n3cccc3)o2)c1 | 5.01 |

| Structure (SMILES) | hERG current change (%, negative = inhibition) at 1uM [%] |
| --- | --- |
| O=C(c1cc2ccccc2o1)c1nc2c(n1O)CCCCC2 | 9.78 |
| c1ccc(-c2noc(C3CCC3)n2)nc1 | 10.2 |
| O=C(COC(=O)CCSc1ccccc1Cl)NCc1ccco1 | 12.7 |
| CCNC(=O)CC1C(=O)N(c2ccc(F)cc2)C(=O)N1Cc1ccc(OC)cc1 (stereo not drawn) | 2.24 |
| Cc1ccc(OCC(=O)N2CCOCC2)cc1C | 8.63 |
| Cc1onc(-c2ccccc2)c1C(=O)OCC(=O)Nc1cccc(Cl)c1 | -5.49 |
| COc1ccc2ccc(OC)c(/C=N/n3cnnc3)c2c1 | 13.1 |
| C/C(=N/NC(=O)c1ccoc1C)c1cccc(NC(=O)C2CC2)c1 | 2.45 |
| O=C(O)c1ccc(N2C(=O)CC(N3CCN(c4cccc(C(F)(F)F)c4)CC3)C2=O)cc1 (stereo not drawn) | 5.87 |
| Cc1ccc(C)c(NC(=S)N(C)CCO)c1 | 12.2 |
| CC(C)(C)c1ccc(C(=O)NC2CCS(=O)(=O)C2)cc1 (stereo not drawn) | 5.86 |
| COc1ccc(C(C(=O)NC2CCCC2)N(C(=O)c2ccoc2C)c2ccc(C)c(C)c2)cc1 (stereo not drawn) | 14 |
| N#C/C(=C/c1ccc(-c2ccc(S(N)(=O)=O)cc2)o1)C(=O)Nc1ccccc1 | -5.9 |
| CCn1nc(C(=O)NNC(=O)CCOc2cc(C)ccc2C)c2ccccc2c1=O | -27.3 |
| Cc1onc(-c2ccccc2)c1C(=O)NNC(=O)c1ccccc1 | 9.07 |
| CC(=O)Nc1ccc(NC(=O)C/C(C)=N/NC(=O)C(=O)N2CCCC2)cc1 | 10.4 |
| O=C(NCCN1CCOCC1)c1cccc(Cl)c1 | 2.76 |
| COC(=O)C1=NN(C(C)=O)C2(CC(=O)N(c3cccc(C)c3)C2=O)C1 (stereo not drawn) | 11.3 |
| O=C(CSc1ncn(-c2ccccc2)n1)Nc1nc2c(s1)CCCC2 | -12.1 |
| CCCC/C=C/C(NC(=O)c1ccc(C(=O)OC)cc1)c1ccccc1 (stereo not drawn) | 16 |
| COCCNC(=O)c1ccc2c(Cl)c3c(nc2c1)CCC3 | -3.41 |
| Cc1nn2cc(-c3ccc(Cl)cc3)cnc2c1Cl | 13.1 |

| Structure (SMILES) | hERG current change (%, negative = inhibition) at 1uM [%] |
| --- | --- |
| CC(C)C[C@H](NC(=O)c1[nH]cnc1C(=O)N[C@@H](C)C(=O)OCc1ccccc1)C(=O)OC(C)(C)C | 12.7 |
| O=C(N/N=C/c1ccccc1Cl)c1ccncc1 | 5.49 |
| O=c1cnn([C@@H]2O[C@H](CO)[C@@H](O)[C@H]2O)c(=O)[nH]1 | 10.6 |
| Fc1ccccc1N1CCN(Cc2nc(-c3ccc(Cl)cc3Cl)no2)CC1 | 2.62 |
| CN(Cc1ccc(Cl)c(Cl)c1)C(=O)C1CSC2(C)CCC(=O)N12 (stereo not drawn) | 2.49 |
| Cc1c(CCC(=O)O)c(=O)oc2cc(O)ccc12 | 11 |
| C=C(C)CN(CC)c1nc(N)c2c(N)nc3c(c2c1C#N)CC(=O)N3C12CC3CC(CC(C3)C1)C2 | 11.1 |
| COC(=O)C1=C(c2ccc(OC)c(OC)c2)C[C@@H]2CC[C@H]1N2C(=O)NCC1CC1 | 14.2 |
| O=C(Nc1cccn(Cc2ccccc2)c1=O)NC1CCCCC1 | -5.94 |
| Cc1ccc(NS(=O)(=O)c2ccc(NC(=O)[C@@H]3CCCC[C@@H]3C(=O)O)cc2)c(C)c1 | 16.4 |
| Cc1ccc(S(=O)(=O)C(C#N)c2nc3ccccc3nc2OCCO)cc1 (stereo not drawn) | 7.01 |
| COc1ccccc1CC(=O)NNC(=O)CN(C)S(=O)(=O)c1ccc(Cl)cc1 | -5.18 |
| N/C(=N\OC(=O)c1cccc(Br)c1)c1ccccc1 | 12.6 |
| CC(=O)Nc1ccc(S(=O)(=O)N(C)c2ccc(OCC(=O)OCC(=O)N3CCCCC3)cc2)cc1 | 5.74 |
| c1ccc2c(c1)Nc1nccnc1S2 | 5.22 |
| CC(=O)N(CCC(c1ccccc1)c1ccco1)Cc1cccs1 (stereo not drawn) | 6.19 |
| C/C(=N\OCC(=O)OCC(=O)N(C)c1ccccc1)c1ccc2c(c1)OCO2 | 1.54 |
| Cc1ccc(-n2nnc3c(=O)n(CC(=O)OCc4ccccc4)cnc32)cc1 | 1.45 |
| O=C(OCCOc1ccccc1Cl)c1ccc(-n2cnnn2)cc1 | -6.97 |
| Cc1cc(C)c(C(=O)COC(=O)c2cccnc2Cl)c(C)c1 | 28.1 |
| COC(=O)C(Cc1ccc(O)cc1)N1Cc2ccccc2C1=O (stereo not drawn) | 12.1 |
| Cc1ccc(-c2csc(=S)n2CC(=O)OCC(=O)NCc2ccc(F)cc2)cc1 | 3.62 |

| Structure (SMILES) | hERG current change (%, negative = inhibition) at 1uM [%] |
| --- | --- |
| N#CC1=C(N)NC(=S)C(C(N)=O)C1c1ccc(Cl)cc1Cl (stereo not drawn) | 19.2 |
| O=C(NC(Cc1ccccc1)c1nc2ccccc2[nH]1)c1ccc(Cl)c([N+](=O)[O-])c1 (stereo not drawn) | 12.3 |
| CC1=C2C3OC(=O)C(C)C3CC[C@@]2(C)C=CC1=O (stereo partly drawn) | 9.53 |
| O=C(Nc1ccc(N2CCOCC2)cc1)c1cccc2c(Br)cccc12 | 0.0897 |
| Clc1ccc(/C=N/NC(=Nc2ccccc2)c2ccccn2)c(Cl)c1 | 2.12 |
| Cl.O=C(Nc1ccccc1)OCC(CN1CCCCC1)OC(=O)Nc1ccccc1 (stereo not drawn) | -17.8 |
| O=C(c1ccc(OC2CCN(Cc3ccccn3)CC2)cc1)N1CCCCCC1 | -3.76 |
| Cc1ccc(S(=O)(=O)NCc2ccc(C(=O)N3CCN(c4ccccn4)CC3)cc2)cc1 | 7.55 |
| CCOc1ccc(S(=O)(=O)N2CCN(C(=S)NC3CC3)CC2)cc1 | 4.08 |
| Cc1ccc2ccc(S(=O)(=O)n3nc(C)cc3C)cc2c1 | 12.4 |
| CC(=O)N1CCN(Cc2nc3scc(-c4ccccc4)c3c(=O)[nH]2)CC1 | 4.59 |
| O=C(COc1ccccc1)NNc1nc2ccccc2s1 | 2.45 |
| CC(Sc1nnc(-c2ccccc2)c(-c2ccccc2)n1)C(=O)Nc1ncc(Cl)cc1Cl (stereo not drawn) | 10.4 |
| C=CCNC(=O)C(=O)NCC(c1ccc2c(c1)OCO2)N1CCOCC1 (stereo not drawn) | 16 |
| CC(C)Sc1nnc(Cn2c(=O)sc3ccccc32)n1-c1ccccc1 | 9.47 |
| COc1cc(OC)c(C(=S)N2CCCC2)cc1OC | 12.4 |
| C=CCn1c(SCC(=O)N2CC(C)OC(C)C2)nnc1-c1ccncc1 (stereo not drawn) | 15.4 |
| COc1cc(-c2ncc3ccccn23)cc(OC)c1OC.O=C(O)C(=O)O | 13.8 |
| Cc1ccc(C)c(S(=O)(=O)N2CCN(C(=O)CCC(=O)c3cc(C)sc3C)CC2)c1 | -5.32 |
| Cc1ccc(NC(=O)CSC2=C(C#N)C(c3ccco3)CC(=O)N2)cc1 (stereo not drawn) | 2.3 |
| Cc1ccc(NC(=O)c2ccc(CNc3c(N4CCOCC4)c(=O)c3=O)cc2)cc1 | -1.1 |
